These results are taken from the supplement of paper PMC10126150.

Sequences with one replicate were seen in a single cluster, so their values are uncertain.
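Also: ATP exposure 15 min at 22 °C before imaging.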

The subject of the series is ATP. Description: switch fluorescence ratio, 500 uM ATP over buffer (Cy3 cluster intensity, sum of 5 cycles each) (fold (ratio)); higher = stronger signal-on switching upon ATP binding; sequences stand for … in TCGTCGGCAGCGTCAGATGTGTATAAGAGACAGTTTTTTTTTTTTTTTTTTTTTTTTT…TC. The note with it: aptamer strand: ATP DNA aptamer (quencher-CACCTGGGGGAGTATTGCGGAGGAAGG + anchor), 100 nM annealed; ATP concentration: 500 uM; one replicate. The essentials: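 Cy3-labelled switching-strand clusters on a modified Illumina MiSeq flow-cell were annealed to 100 nM quencher-labelled ATP aptamer and imaged first in selection buffer, then after 15 min with 500 uM ATP at 22 °C. NaOH stripping and re-annealing separated each of five buffer/ATP cycles, and clusters outside 100-1000 RFU were excluded. The fluorescence ratio sums target-cycle Cy3 intensity over buffer-cycle Cy3 intensity per cluster and averages it per switch-domain sequence.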
In the case of TATGAAAACA, the switch fluorescence ratio amounted to 0.993.
Under TTGTACGTAT stands 1.03; under TTCACTAAGA, 1.04.
As to CACAAGCCAC, the switch fluorescence ratio was 1.26.
GGCATTATGT: the switch fluorescence ratio was 1.03.
Under TAATGTTTAC stands 0.984.
Consider AGCGAGAAAT, for which the switch fluorescence ratio was found to be 1.01.
Turning to TTCGTCGGGA, the switch fluorescence ratio is 1.02.
As to ACGGGGCCCA, the switch fluorescence ratio came to 1.02.
In the case of ATTGACTGCC, the switch fluorescence ratio worked out at 1.17.
Under GATAGATTGA stands 1.04.
With ACATTTTTA the figure was 1.04.
Consider TAAGGGAAAG, for which the switch fluorescence ratio was determined as 0.957.
Under GGACGCATCA stands 1.12; under TGCAGAAGAT, 1.02.
Under GAACTTAACT stands 1.23; under TACTCTGGTT, 0.978.
Take AAATAGAAAC: the switch fluorescence ratio was determined as 0.938.
With AGAATTACTG, the switch fluorescence ratio turned out to be 1.06.
Under ATAGAACTTA stands 1.03; under TTAGGTTCTT, 1.02; under TAAGGGTACC, 1.04.
Under TCACTAATTT stands 1.01.
With GTAGGAACAG the figure was 0.968.
Regarding AGGATCGTTT, the switch fluorescence ratio came to 0.984.
Under AAATTAATGA stands 1.
Under CCTTTGATGA stands 1.05; under GCCCCTTCGG, 0.985.
With TATCGGTTGC the figure was 0.98; with TGTGAGTCTA, 0.947.
Consider TCTCATGCAA, for which the switch fluorescence ratio is 1.34.
Under CAACCGTTGC stands 1.7; under AGTGGAAAGG, 0.995; under AGTAGTCTGC, 1.04.
With GGTCCCGGCG the figure was 1.
Under AGTATTGTCA stands 1.03; under GACTTAACGC, 1.13.
Take CAAATGAGGA: the switch fluorescence ratio was 1.03.
Under TGCACGCAGA stands 1.12; under TGCATATAGT, 1.07; under AGCAGAATGG, 0.958.
With CAGCGGTCCA the figure was 1.04.
Under CTATGGAACG stands 0.99; under TTTGAGAACT, 0.994; under TGCATTGGCG, 0.982.
With ATCAGGTTTT, the switch fluorescence ratio was 1.04.
As to AGAAAATGGG, the switch fluorescence ratio came to 1.01.
With TATTAAGACT the figure was 1.02; with TAGCGCGCAA, 1.21.
Under TAACCGGGAC stands 1.24; under CGTAGAGATG, 1.03; under TACTGTGGCT, 1.07.
With GATGGGGAAA the figure was 0.936.
On to GGGTAGCGAT, for which the switch fluorescence ratio was 1.16.
Turning to GAGCGGTCAT, the switch fluorescence ratio came out at 1.03.
On to TATACGCTGG, for which the switch fluorescence ratio is 0.963.
With GGAATCTCTC the figure was 1.03; with TTTGGCTCG, 0.977; with CGAAACCGT, 1.13.
GCGCAACACC: the switch fluorescence ratio was determined as 1.57.
Under GGCCGGCTTG stands 1.03; under AGAGGGAGCT, 0.969.
Take TGATTTGTGT: the switch fluorescence ratio was 0.977.
With CAGGATAAGA the figure was 1.01; with TAAGGGGAT, 0.984.
For the sequence ATTAACTTGG, the switch fluorescence ratio is 1.
Under TCATCGAGGG stands 0.952.
